Source: patent US8106168B2, “Metalloproteinase binding proteins” (Dyax Corp., priority 2005, dated 2012)

B1: M0036-H08: Fab that binds human MMP-14; DNA LV SEQ ID NO: 34, HV SEQ ID NO: 35 (antibody, V domains shown)
VL: [about 100 residues left out here]FGQGSKVEIKRT
VH: EVQLLESGGGLVQPGGSLRLSCAASGFTFSRYWMVWVRQAPGKGLEWVSYIYSSGGMTGYADSVKGRFTISRDNSKNTLYLQMNSLRAEDTAVYYCARGGEYSGFLGVWGQGTLVTVSS
modifications: Synthetically generated oligonucleotide
B2: M0040-A08: Fab that binds human MMP-14; DNA LV SEQ ID NO: 84, HV SEQ ID NO: 85 (antibody, V domains shown)
VL: [about 100 residues left out here]FGGGTKVEIK
VH: EVQLLESGGGLVQPGGSLRLSCAASGFTFSAYMMGWVRQAPGKGLEWVSGISSSGGLTSYADSVKGRFTISRDNSKNTLYLQMNSLRAEDTAVYYCARPALIYYDSSGPSDAFDIWGQGTMVTVSS
modifications: Synthetically generated oligonucleotide
B3: M0040-B08: Fab that binds human MMP-14; DNA LV SEQ ID NO: 90, HV SEQ ID NO: 91 (antibody, V domains shown)
VL: [about 100 residues left out here]
VH: EVQLLESGGGLVQPGGSLRLSCAASGFTFSYYNDMAWVRQAPGKGLEWVSSISPSGGKTEYADSVKGRFTISRDNSKNTLYLQMNSLRAEDTAVYYCARSGSYTQHFDYWGQGTLVTVSS
modifications: Synthetically generated oligonucleotide
B4: M0041-D08: Fab that binds human MMP-14; DNA LV SEQ ID NO: 114, HV SEQ ID NO: 115 (antibody, V domains shown)
VL: QDIQMTQSPGTLSLSPGERATLS[about 80 residues left out here]FGQGTKVEIK
VH: EVQLLESGGGLVQPGGSLRLSCAASGFTFSSYRMSWVRQAPGKGLEWVSGISSSGGFTMYADSVKGRFTISRDNSKNTLYLQMNSLRAEDTAVYYCARDILTGYSYGMDVWGQGTTVTVSS
modifications: Synthetically generated oligonucleotide
B5: M0042-G12: Fab that binds human MMP-14; DNA LV SEQ ID NO: 124, HV SEQ ID NO: 125 (antibody, V domains shown)
VL: QDIQMTQSPGTLSLSPGERATLS[about 80 residues left out here]YTFGQGTKLEIK
VH: EVQLLESGGGLVQPGGSLRLSCAASGFTFSHYPMFWVRQAPGKGLEWVSGISSSGGYTIYADSVKGRFTISRDNSKNTLYLQMNSLRAEDTAVYYCARGGRRQTRRTSDYYYGMDVWGQGTTVTVSS
modifications: Synthetically generated oligonucleotide
B6: M0031-H10: Fab that binds human MMP-14; DNA LV SEQ ID NO: 18, HV SEQ ID NO: 19 (antibody, V domains shown)
VH: EVQLLESGGGLVQPGGSLRLSCAASGFTFSQYVMWWVRQAPGKGLEWVSSIVPSGGVTKYADSVKGRFTISRDNSKNTLYLQMNSLRAEDTAVYYCAKDVFGSIGYYYVPFFDYWGQGTLVTVSS
VL: [about 100 residues left out here]FTFGPGTKVDIK
modifications: Synthetically generated oligonucleotide

Biological target: MMP-14 (Homo sapiens, UniProt P50281)
Test: Selection and phage ELISA screening of anti-MMP-14 Fabs
Assay type: binding
Conditions: Fab from FAB310 phage display library
Method: Strategy I: A 100-fold excess of the FAB310 library (e.g., an amount of the library that should contain 100 copies of each library member) was depleted of streptavidin-binding antibodies by incubating the library with 200 μL of streptavidin beads for 1 hour at room temperature (RT) with rotation. 500 nM of biotinylated MMP-14 was coupled to streptavidin beads by incubation with 100 μL of streptavidin beads. The MMP-14 beads were then incubated with the streptavidin-depleted library for 1 hour at RT with rotation. The beads were then rinsed three times with 2% MTRIS/0.1% Tween, transferred to a fresh tube and washed an additional three times with 2% MTRIS/0.1% Tween, and transferred to a fresh tube and washed a final time with Round 1 TRIS buffer (50 mM TRIS; 50 mM CaCl2; 150 mM NaCl, pH 7.5).
MMP-14 binding antibodies were eluted from the beads by re-suspension in 1 mL 2% MTRIS containing 2.5 μM TIMP-2 and incubation for 1 hour at RT with rotation. The beads were then washed three times with 2% MTRIS/0.1% Tween, transferred to a fresh tube and washed three times with TRIS/0.1% Tween, and transferred to a fresh tube and washed a final time with TRIS. 1 mL output was used for infection of 9 mL TG1 bacteria (grown to OD600=0.5). The beads were further eluted by suspension in 1 mL 100 mM TEA for 10 minutes. The supernatant was neutralized with 500 μl TRIS/HCl pH 7.5. 1 mL of the second elution was used for infection of 9 mL TG1 bacteria (grown to OD600=0.5).
Two additional rounds of selection were carried out under the same conditions as the first round, except that the streptavidin beads were loaded with 100 nM biotinylated MMP-14 and the number of washes were doubled (6 times with 2% MTRIS/0.1% Tween, 6 times with TRIS/0.1% Tween and 2 times with TRIS), and Round 2/3 Tris buffer (50 mM TRIS; 5 mM CaCl2; 150 mM NaCl pH=7.5) was used for incubation and wash.
TIMP-2 was coupled to carboxylic beads, then complexed with a combination of biotinylated MMP-14 (500 nM each). The complexed beads were incubated with a 100 fold excess of FAB310 library that had been previously depleted by incubation with streptavidin beads and carboxylic beads. Elution/washing was carried out as for Strategy I.
Two additional rounds of selection were carried out, essentially as described for Strategy I, except that only 100 nM of each of MMP-14 were used in the bead complexes.
384-well plates were coated with biotinylated BSA (2 μg/ml in 50 mM TRIS; 5 mM CaCl2; 150 mM NaCl, pH 7.5), then washed 3 times with 50 mM TRIS; 5 mM CaCl2; 150 mM NaCl, pH 7.5; 0.1% Tween. Streptavidin was captured on the coated plates by incubation with 10 μg/mL streptavidin in 50 mM TRIS; 5 mM CaCl2; 150 mM NaCl pH 7.5; 0.5% Gelatin, followed by a wash with 50 mM TRIS; 5 mM CaCl2; 150 mM NaCl pH=7.5; 0.1% Tween. On the day the assay was to be performed, biotinylated MMP-14 (1 μg/ml) was captured in 50 mM TRIS; 5 mM CaCl2; 150 mM NaCl, pH 7.5.
95 clones were picked from each of Round 2 and Round 3 of each selection strategy, producing 12 masterplates. ELISA was run on the MiniTrak-5 deck according to SOP.

Bind to human MMP-14, bind to human MMP-14:
B1
B2
B3
B4
B5
B6
